Assay results from article PMC6323126.
No constants are given. Whether binding was seen depends on the method and setting. In cells and extracts the contact can be indirect. Tags and fused reporters may be left off the sequences shown.

Target: T1, Flag-tagged STRN3 Δ64–190 (human) (UniProt Q13033)
T1 sequence: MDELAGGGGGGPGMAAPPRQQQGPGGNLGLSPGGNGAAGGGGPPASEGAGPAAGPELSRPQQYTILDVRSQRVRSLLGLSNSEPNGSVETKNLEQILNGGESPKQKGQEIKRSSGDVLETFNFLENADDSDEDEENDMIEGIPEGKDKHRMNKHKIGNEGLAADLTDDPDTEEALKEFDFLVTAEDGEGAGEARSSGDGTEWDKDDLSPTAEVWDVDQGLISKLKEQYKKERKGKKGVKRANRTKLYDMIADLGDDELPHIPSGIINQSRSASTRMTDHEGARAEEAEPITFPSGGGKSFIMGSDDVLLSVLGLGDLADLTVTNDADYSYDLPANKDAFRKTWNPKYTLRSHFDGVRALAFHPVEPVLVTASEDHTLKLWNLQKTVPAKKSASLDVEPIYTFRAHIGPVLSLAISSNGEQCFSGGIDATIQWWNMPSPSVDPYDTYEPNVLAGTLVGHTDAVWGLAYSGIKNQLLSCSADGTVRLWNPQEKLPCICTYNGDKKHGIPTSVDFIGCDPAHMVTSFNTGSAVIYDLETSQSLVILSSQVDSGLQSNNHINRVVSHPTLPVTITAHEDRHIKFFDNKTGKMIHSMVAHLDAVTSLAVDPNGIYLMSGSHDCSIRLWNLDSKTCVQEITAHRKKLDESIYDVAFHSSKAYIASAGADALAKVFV
Test: co-IP; HEK293FT cells transfected with tagged plasmids, lysed 24 h later in RIPA buffer; immunoprecipitation with indicated antibodies and Protein A/G beads; immunoblot

B1: HA-tagged SIKE1 (wildtype, in cells) (protein, UniProt Q9BRV8 1-207)
chain: MSCTIEKILTDAKTLLERLREHDAAAESLVDQSAALHRRVAAMREAGTALPDQYQEDASDMKDMSKYKPHILLSQENTQIRDLQQENRELWISLEEHQDALELIMSKYRKQMLQLMVAKKAVDAEPVLKAHQSHSAEIESQIDRICEMGEVMRKAVQVDDDQFCKIQEKLAQLELENKELRELLSISSESLQARKENSMDTASQAIK
- binding: no binding
